{"source": "paper PMC5575521", "about": "“Liver microsomal lipid enhances the activity and redox coupling of colocalized cytochrome P450 reductase‐cytochrome P450 3A4 in nanodiscs” (The Febs Journal, 2017)", "binders": {"B1": {"name": "cytochrome P450 3A4 (CYP3A4), human, C-terminally His-tagged, expressed from pB84 (enzyme, UniProt P08684 1-503, looked up)", "chain": "MALIPDLAMETWLLLAVSLVLLYLYGTHSHGLFKKLGIPGPTPLPFLGNILSYHKGFCMFDMECHKKYGKVWGFYDGQQPVLAITDPDMIKTVLVKECYSVFTNRRPFGPVGFMKSAISIAEDEEWKRLRSLLSPTFTSGKLKEMVPIIAQYGDVLVRNLRREAETGKPVTLKDVFGAYSMDVITSTSFGVNIDSLNNPQDPFVENTKKLLRFDFLDPFFLSITVFPFLIPILEVLNICVFPREVTNFLRKSVKRMKESRLEDTQKHRVDFLQLMIDSQNSKETESHKALSDLELVAQSIIFIFAGYETTSSVLSFIMYELATHPDVQQKLQEEIDAVLPNKAPPTYDTVLQMEYLDMVVNETLRLFPIAMRLERVCKKDVEINGMFIPKGVVVMIPSYALHRDPKYWTEPEKFLPERFSKKNKDNIDPYIYTPFGSGPRNCIGMRFALMNMKLALIRVLQNFSFKPCKETQIPLKLSLGGLLQPEKPVVLKVESRDGTVSGA", "notes": "human cytochrome P450 3A4 with its own N-terminal membrane anchor domain; expressed with an OmpA leader that is cleaved off during membrane targeting; source: E. coli K12 JM109, solubilised with CHAPS, purified (Ni-NTA agarose); not shown: His-tag, C-terminal, kept"}}, "molecular_target": "T1, NADPH-dependent cytochrome P450 oxidoreductase (CPR), full-length human, expressed from pPORh1 (human, UniProt P16435 1-677)", "T1 construct": "printed in three-letter code as Gly-Iso-Pro-Gly-Ser; human NADPH-dependent cytochrome P450 reductase (CPR), full length with its N-terminal membrane anchor domain; Expressed with an N-terminal OmpA leader for periplasmic membrane targeting; also called cytochrome P450 reductase; full-length CPR; source: E. coli C41(DE3), solubilised from membranes with Triton X-100, purified (2',5'-ADP Sepharose …)", "T1 sequence": "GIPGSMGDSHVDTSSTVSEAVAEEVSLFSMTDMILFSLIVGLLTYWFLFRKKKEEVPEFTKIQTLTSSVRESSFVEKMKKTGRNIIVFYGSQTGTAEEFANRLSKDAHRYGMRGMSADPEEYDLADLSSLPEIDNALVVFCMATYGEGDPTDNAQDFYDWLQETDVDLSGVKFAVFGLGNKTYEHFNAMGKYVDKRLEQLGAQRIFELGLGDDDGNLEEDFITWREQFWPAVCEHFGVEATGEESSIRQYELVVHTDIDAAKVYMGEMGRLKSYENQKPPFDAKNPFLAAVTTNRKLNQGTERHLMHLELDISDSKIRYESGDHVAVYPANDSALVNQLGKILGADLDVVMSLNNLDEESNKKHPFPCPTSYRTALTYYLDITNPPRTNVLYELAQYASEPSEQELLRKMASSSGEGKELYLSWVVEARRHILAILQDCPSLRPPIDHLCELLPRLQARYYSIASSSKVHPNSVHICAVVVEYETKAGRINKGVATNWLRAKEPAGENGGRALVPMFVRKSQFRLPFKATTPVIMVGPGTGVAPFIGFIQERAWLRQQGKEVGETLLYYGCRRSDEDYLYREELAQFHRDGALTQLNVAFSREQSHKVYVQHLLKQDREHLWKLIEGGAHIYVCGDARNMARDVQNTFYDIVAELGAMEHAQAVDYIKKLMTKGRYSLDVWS", "experiment": "pull-down + SEC; CPR and CYP3A4 premixed 30-60 min at room temperature, then assembled with MSP1E3D1 (His-tag removed) and lipid into nanodiscs; Ni-affinity enrichment via the C-terminal His-tag of CYP3A4, then gel filtration; fractions resolved by SDS/PAGE", "settings": "both partners purified"}
{"binder": "B1", "values": [{"measurement": "binding result", "result": "binds"}]}
